Laboratory results published in PubChem BioAssay AID2451 (National Center for Advancing Translational Sciences (NCATS), 2010).
“And” between values parts separate entries of the source, which are not always exact repeats. Equal values may be shown once. Out of some 290,000 compounds screened, about 2,100 (0.72%) were called active. Inconclusive results, whose numbers are uncertain, are shown with a selection of clear calls. Calls come from the whole dose curve; as a rule, active = well fitted inhibition curve with a large enough effect; inconclusive = small, poorly fitted or top-dose-only effect, or effect the other way; inactive = flat fitted curve, though single readings scatter. Potencies of inconclusive entries are doubtful fits and often do not repeat.

target: Fructose-bisphosphate aldolase (Giardia intestinalis (strain ATCC 50803 / WB clone C6)) (UniProt A8B2U2); experiment: qHTS Assay for Inhibitors of Fructose-1,6-bisphosphate Aldolase from Giardia Lamblia; settings: purified Giardia FBPA; activity, negative = inhibition: at 59.6 µM (top of the series) unless noted; note: nearly all actives have a fitted effect of over 55% in size
How it was run: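 40 nM FBPA preincubated 10 min at RT with compound (up to 57.5 uM final), then substrate plus GAPDH/TPI/NAD/arsenate coupling and diaphorase/resazurin added. Fluorescence read after 20 min at RT, 525/598 nm.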
% is set by controls: 0 for no effect and ±100 for the full control effect; potency is the fitted concentration of half-maximal effect; tags give direction and shape of the fitted curve.

UniProt A8B2U2, sequence (A8B2U2 whole entry, looked up): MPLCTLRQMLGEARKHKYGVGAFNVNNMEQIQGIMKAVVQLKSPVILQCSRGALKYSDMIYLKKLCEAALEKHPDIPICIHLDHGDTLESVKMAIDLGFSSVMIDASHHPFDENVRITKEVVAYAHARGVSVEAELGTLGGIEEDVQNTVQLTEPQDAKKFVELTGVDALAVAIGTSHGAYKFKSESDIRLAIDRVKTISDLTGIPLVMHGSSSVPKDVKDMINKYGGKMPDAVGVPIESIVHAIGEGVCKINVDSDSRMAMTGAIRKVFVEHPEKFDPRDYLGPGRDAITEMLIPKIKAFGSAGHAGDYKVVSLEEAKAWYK

Which Potency does the source give for `O=C(N/N=C/c1ccc([N+](=O)[O-])o1)c1ccc(O)cc1` here?
The Potency was inconclusive: 14.1 µM [inhibitor, partial curve].

Which Potency does the source give for `Cc1cc[n+](CC(=O)Nc2cccc(C)c2)cc1` here?
The Potency was inconclusive: 25.1 µM [inhibitor, partial curve].

With `O=C(C1=C(O)C(=O)N(CCN2CCOCC2)C1c1ccccn1)c1cccs1` (configuration not stated) as the compound, how does the Potency read?
Its Potency is inconclusive: 15.8 µM [inhibitor, partial curve].

Which activity, negative = inhibition does the source give for `O=C(CN1C(=O)c2ccccc2C1=O)Nc1cccc(Cl)c1` here?
Its activity, negative = inhibition is inconclusive: 49.5% [activator].

For `O=C(O)CSc1c(O)c2ccccc2[nH]c1=O`, which Potency is on record?
Its Potency is active: 17.7 µM.

With `Cc1oc2c(O)c(O)ccc2c(=O)c1-c1ccc(Cl)cc1` as the compound, how does the Potency read?
The Potency was inconclusive: 3.55 µM [inhibitor, full curve].

With `CC1CCCCN1S(=O)(=O)c1ccc(C(=O)Nc2nnc(-c3ccncc3)o2)cc1` (configuration not stated) as the compound, how does the Potency read?
Its Potency is active: 5 µM.

For `O=C(CS(=O)(=O)c1ccccc1)Nc1nc(-c2ccc(F)cc2)cs1`, which Potency is on record?
Its Potency is inconclusive: 19.9 µM [inhibitor, single point].

`CC(C)=CCc1c(O)cc2oc3c(CC=C(C)C)c(O)c(O)c(CC=C(C)C)c3c(=O)c2c1O` was tested. Which Potency did it give?
Its Potency is inconclusive: 17.7 µM [inhibitor, partial curve].

For `C/C=C\C1=C(CO)C(=O)[C@@H]2OC2C1=O` (some centres not stated), which Potency is on record?
Its Potency is inconclusive: 5 µM [inhibitor, partial curve].

With `Nc1nc2ccccc2n1C(=O)c1ccco1` as the compound, how does the “activity, negative = inhibition” value read?
Its value is inactive: -4.57%.

How did the Potency turn out when `Cc1cc(C)nc(Nc2ccc(Cl)cc2C)n1` was run?
Its Potency is inconclusive: 15.8 µM [inhibitor, partial curve].

`Cc1ccc(C(=O)Nc2nnc(CC(=O)N/N=C/c3ccc(O)c(O)c3)s2)cc1` was tested. Which Potency did it give?
Its Potency is inconclusive: 17.8 µM [inhibitor, single point].

With `C=CCN1C=C2C(=O)C(C)(OC(=O)C3CCCC3)C(=O)C=C2C=C1c1ccsc1` (configuration not stated) as the compound, how does the Potency read?
Its Potency is inconclusive: 446 nM [inhibitor, full curve] and inconclusive: 500 nM [inhibitor, partial curve].

With `CCCC(=O)C1=C(c2ccccc2)C(C#N)(C#N)C(C#N)=C1N` as the compound, how does the Potency read?
Its Potency is inconclusive: 17.7 µM [inhibitor, partial curve, poor fit].

For `Cc1ccc(-c2csc(C3C(N)=NC(S)=C(C#N)C34CCCCC4)n2)cc1` (configuration not stated), which Potency is on record?
The Potency was inconclusive: 19.9 µM [activator, single point].

With `CC1C(=O)C(C)C(c2ccccc2F)NC1c1ccccc1F` (configuration not stated) as the compound, how does the Potency read?
Its Potency is inconclusive: 31.6 µM [inhibitor, single point].

`O=[N+]([O-])C(=C1Nc2ccccc2N1)C(Cl)=C(Cl)Cl` was tested. Which Potency did it give?
The Potency was inconclusive: 17.7 µM [inhibitor, single point].

How did the Potency turn out when `Cc1ccc(/C=N/Nc2nncn2N)cc1` was run?
Its Potency is inconclusive: 25.1 µM [inhibitor, partial curve].

With `Cn1cc(C2=C(c3ccc(Cl)cc3Cl)C(=O)NC2=O)c2ccccc21` as the compound, how does the Potency read?
Its Potency is inconclusive: 15.8 µM [inhibitor, single point].

For `CC1OC(OCC2OC(Oc3c(-c4ccc(O)c(O)c4)oc4cc(O)cc(O)c4c3=O)C(O)C(O)C2O)[C@@H](O)C(O)C1O` (some centres not stated), which Potency is on record?
Its Potency is inconclusive: 22.3 µM [inhibitor, partial curve].

For `CCCNC(=S)NC1CC2CCCC(C1)N2Cc1ccc(F)cc1` (configuration not stated), which Potency is on record?
The Potency was inconclusive: 39.8 µM [inhibitor, single point].

With `Cc1cc(NC(=O)CCCN2C(=O)c3cccnc3C2=O)no1` as the compound, how does the “activity, negative = inhibition” value read?
Its value is inactive: -0.767%.

Which Potency does the source give for `CCN(CC)CCNC(=O)c1cn(CC)c2cc(N3CCN(C)CC3)c(F)cc2c1=O` here?
Its Potency is inconclusive: 35.5 µM [inhibitor, partial curve].

For `COc1ccccc1OCCCn1cc(C#N)c2ccccc21`, which Potency is on record?
Its Potency is active: 19.9 µM.

`O=C1NC(=O)C(=O)C(=O)N1` was tested. Which Potency did it give?
The Potency was inconclusive: 15.8 µM [inhibitor, partial curve].

For `Cc1cccc(/C=N/NC(=O)C(C)Nc2cccc3ccccc23)n1` (configuration not stated), which Potency is on record?
The Potency was inconclusive: 11.2 µM [inhibitor, partial curve].

For `COCc1cc(O)c(O)c(O)c1-c1c(COC)cc(O)c(O)c1O`, which Potency is on record?
The Potency was active: 3.97 µM.

Which Potency does the source give for `COc1cccc(C(=O)NCc2ccc3[nH]c(C)cc3c2)c1` here?
Its Potency is inconclusive: 1.41 µM [inhibitor, full curve, poor fit].

Which “activity, negative = inhibition” value does the source give for `O=S(=O)(NCc1cccnc1)c1cccn1-c1ncc(C(F)(F)F)cc1Cl` here?
Its value is inactive: 4.21%.

`Cc1cc(NC(=O)NCc2ccccc2)c(=O)n(Cc2ccc(F)cc2)c1` was tested. Which Potency did it give?
The Potency was inconclusive: 28.2 µM [inhibitor, single point].

With `Cc1ccnc(NC(=S)NC(=O)c2cccs2)c1` as the compound, how does the Potency read?
The Potency was inconclusive: 8.89 µM [inhibitor, partial curve].

Which Potency does the source give for `COc1ccc(CN2CCN(Cc3ccccc3C(F)(F)F)CC2)c(OC)c1` here?
Its Potency is active: 12.6 µM.

For `O=[N+]([O-])c1cccnc1N1CCN(Cc2ccc3c(c2)OCO3)CC1`, which Potency is on record?
Its Potency is inconclusive: 12.6 µM [inhibitor, partial curve].

`COc1ccc(C(CC(=O)c2ccccc2)CC(=O)c2ccccc2)cc1` was tested. Which “activity, negative = inhibition” value did it give?
The value was inactive: -13.7%.

Which “activity, negative = inhibition” value does the source give for `O=C(Nc1cccc(-c2csc(Nc3ccccc3)n2)c1)c1ccccc1` here?
The value was inactive: -12.1%.

With `S=c1nc(-c2ccc(Cl)cc2)[nH][nH]1` as the compound, how does the “activity, negative = inhibition” value read?
The value was inactive: 3.97%.

For `CN(C)C(=O)c1ccc(-c2ccc3ncnc(NCc4ccccc4)c3c2)cc1`, which “activity, negative = inhibition” value is on record?
The value was inactive: 3.26%.

Which “activity, negative = inhibition” value does the source give for `O=C(Nc1cccc(Cl)c1)N(CCN1CCOCC1)Cc1cccc(Cl)c1` here?
Its value is inactive: -9.46%.

How did the Potency turn out when `COc1ccc(C(=O)OCC(=O)Nc2nnc(-c3ccccc3)o2)cc1` was run?
The Potency was inconclusive: 28.2 µM [activator, partial curve].

For `CCOC(=O)c1ccc2ncc(C(=O)OCC)c(NCc3ccco3)c2c1`, which “activity, negative = inhibition” value is on record?
Its value is inactive: -15.8%.

With `Cc1ccc2c(c1)c(=O)c1c3n2CCN(C(=O)CCl)C3CC1` (configuration not stated) as the compound, how does the Potency read?
The Potency was inconclusive: 9.98 µM [inhibitor, partial curve].

For `Cc1cccc(N2CCN(Cc3ccc([N+](=O)[O-])o3)CC2)c1C`, which Potency is on record?
Its Potency is inconclusive: 28.2 µM [inhibitor, partial curve].

For `Cc1cc(C)nc(N/N=C/c2ccncc2)n1`, which Potency is on record?
The Potency was inconclusive: 20 µM [inhibitor, partial curve].

`CC(=O)Nc1ccc2c(c1)nc1n2CCN(C2CCCCC2)C1` was tested. Which “activity, negative = inhibition” value did it give?
The value was inactive: -27.5%.

Which “activity, negative = inhibition” value does the source give for `O=C1NCCC/C1=N\Nc1ccc(Br)cc1` here?
Its value is inactive: -9.29%.

`COc1ccc(NC(=O)c2ccccn2)cc1OC` was tested. Which Potency did it give?
The Potency was inconclusive: 15.8 µM [inhibitor, single point].

For `Cc1cc(C(C)(C)C)ccc1OCCN(C)C`, which Potency is on record?
The Potency was inconclusive: 17.7 µM [inhibitor, single point].

Which Potency does the source give for `CC(C)(C)c1ccc(C(=O)NC(=S)NNC(=O)c2cccs2)cc1` here?
The Potency was inconclusive: 12.6 µM [activator, partial curve].

`CCCCCc1c(O)c2ccccc2[nH]c1=O` was tested. Which “activity, negative = inhibition” value did it give?
The value was inactive: -11.9%.

For `C=CCn1c(SCC(=O)c2ccc(O)c(O)c2)nnc1-c1ccccc1OC`, which Potency is on record?
The Potency was active: 3.15 µM.

How did the Potency turn out when `Clc1ccc(CN2CCCCCCC2)cc1Cl` was run?
Its Potency is inconclusive: 25.1 µM [inhibitor, single point].

For `CCC(=O)Nc1nc(C)c(-c2csc(Nc3cccc(C(=O)O)c3)n2)s1`, which Potency is on record?
The Potency was inconclusive: 17.7 µM [inhibitor, partial curve].

Which Potency does the source give for `C/C=C/c1ccc(OCCOCCNCc2ccccc2)c(OC)c1` here?
The Potency was inconclusive: 14.1 µM [inhibitor, partial curve].

How did the Potency turn out when `O=C(CN1C(=O)c2cccc3cccc1c23)N1CCc2ccccc2C1` was run?
The Potency was inconclusive: 15.8 µM [inhibitor, single point].

How did the Potency turn out when `Cc1cccc(OCC(=O)N2CCC(N3CCCCCC3)CC2)c1` was run?
The Potency was inconclusive: 9.98 µM [inhibitor, full curve].

For `C=CCN(CC=C)CCOc1ccccc1[N+](=O)[O-]`, which Potency is on record?
Its Potency is inconclusive: 19.9 µM [inhibitor, partial curve].

For `COc1ccc(NC(=O)c2ccc(Cl)c(NC(=O)c3ccncc3)c2)cc1`, which “activity, negative = inhibition” value is on record?
Its value is inactive: -0.659%.

Which Potency does the source give for `COc1ccc(CN2CCN(C(=O)CC(C)C)CC2)cc1Br` here?
Its Potency is inconclusive: 25.1 µM [inhibitor, partial curve].

For `O=c1[nH]n2c(=O)c3c([nH]c2c1N=Nc1ccccc1)CCC3`, which Potency is on record?
Its Potency is inconclusive: 3.54 µM [inhibitor, full curve].

`COc1cc(/C=C/[N+](=O)[O-])ccc1OC(=O)c1cc2ccccc2oc1=O` was tested. Which Potency did it give?
The Potency was inconclusive: 39.8 µM [inhibitor, single point].

For `O=C1NC(c2ccncc2)Nc2sc3c(c21)CCCC3` (configuration not stated), which Potency is on record?
Its Potency is inconclusive: 17.7 µM [inhibitor, single point].

Which Potency does the source give for `Cc1cc(C)n(C(C[N+](=O)[O-])c2ccc(Cl)cc2)n1` (configuration not stated) here?
The Potency was inconclusive: 15.8 µM [inhibitor, single point].

`CCOCc1c(C(=O)Nc2cc(OCC)c(N3CCOCC3)cc2OCC)oc2ccccc12` was tested. Which “activity, negative = inhibition” value did it give?
The value was inactive: -3.35%.

Which “activity, negative = inhibition” value does the source give for `O=C1NC[C@H](c2ccccc2)N(CCc2cccc3ccccc23)C1=O` here?
The value was inactive: -0.852%.

With `COc1cc(/C=N/NC(N)=O)cc([N+](=O)[O-])c1O` as the compound, how does the “activity, negative = inhibition” value read?
The value was inactive: -16.3%.

Which Potency does the source give for `CCNC(=S)N/N=C/c1ccc(C(=O)O)cc1` here?
Its Potency is active: 17.7 µM.

Which “activity, negative = inhibition” value does the source give for `CN(C)CCN=Cc1c(O)n(Cc2ccc3c(c2)OCO3)c(=O)c2ccccc12` here?
The value was inactive: 0.159%.

`CC(C)C(=O)N1CCN(c2ccc([N+](=O)[O-])c(NC(C)c3ccccc3)c2)CC1` (configuration not stated) was tested. Which Potency did it give?
The Potency was inconclusive: 15.8 µM [inhibitor, single point].

`CC(C)CN1C(=O)/C(=C/c2ccco2)NC1=S` was tested. Which Potency did it give?
Its Potency is inconclusive: 11.2 µM [inhibitor, partial curve].

With `CN(C)c1ccc2c(O)cc(=O)n(C)c2c1` as the compound, how does the Potency read?
Its Potency is inconclusive: 7.92 µM [inhibitor, partial curve].

Which Potency does the source give for `O=C(/C=C/c1ccc(O)c(O)c1)OC(Cc1ccc(O)c(O)c1)C(=O)O` (configuration not stated) here?
The Potency was inconclusive: 19.9 µM [inhibitor, partial curve] and inconclusive: 4.47 µM [inhibitor, partial curve].
